According to the supplement of paper PMC4967469:

Key:
Experiment in all cases: Viability of human cancer cell lines after 72 h of drug (GDSC screen)
[1] = compound: CCc1cc(Nc2nccc(-c3c(-c4ccc(OC)c(C(=O)Nc5c(F)cccc5F)c4)nc4ccccn34)n2)c(OC)cc1N1CCC(N2CCN(S(C)(=O)=O)CC2)CC1 [GSK-1904529A]; conditions: top dose 1.024 µM; top dose inferred
Description: (§1)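 Human cancer cell lines in 384-well plates, medium with 10% serum, drug for 72 h over a 256-fold dose range (nine 2-fold or five 4-fold steps up to the top dose). Adherent lines were fixed and stained with the nucleic acid dye Syto60, suspension lines read with resazurin; signal relative to control wells, capped at 0 and 100%. One two-parameter sigmoid per drug and line, fitted in a mixed model over all curves with the slope shared within a line.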

[2] = compound: Cn1cncc1[C@@](N)(c1ccc(Cl)cc1)c1ccc2c(c1)c(-c1cccc(Cl)c1)cc(=O)n2C [Tipifarnib]; conditions: top dose 16 µM; top dose inferred
Description: as §1

[3] = compound: COc1ccccc1S(=O)(=O)Nc1ccc2c(c1)CN(C)C(=O)N2 [PFI-1]; conditions: top dose 10 µM; top dose inferred
Description: as §1

[4] = compound: CCN1CCN(Cc2ccc(NC(=O)c3ccc(C)c(Oc4ccnc5[nH]ccc45)c3)cc2C(F)(F)F)CC1 [NG-25]; conditions: top dose 10.24 µM; top dose inferred
Description: as §1

Row | Cell Line | AUC [1] | IC50 [1] [µM] | AUC [2] | IC50 [2] [µM] | AUC [3] | IC50 [3] [µM] | AUC [4] | IC50 [4] [µM]
1 | HuO-3N1 (osteosarcoma, adherent) | 0.963 | > 1.02 | 0.697 | 4.32 | 0.897 | > 10 | 0.977 | > 10.2
2 | NCI-H2030 (lung adenocarcinoma, adherent) | 0.976 | > 1.02 | 0.589 | 1.81 | 0.901 | > 10 | 0.828 | 7.58
3 | SW626 (ovary, adherent) | 0.966 | > 1.02 | 0.533 | 1.25 | 0.812 | 6.65 | 0.935 | > 10.2
4 | NCI-H2228 (lung adenocarcinoma, adherent) | 0.963 | > 1.02 | 0.64 | 2.98 | 0.971 | > 10 | 0.939 | > 10.2
5 | KYSE-270 (oesophagus, adherent) | 0.987 | > 1.02 | 0.245 | 0.212 | 0.86 | 6.46 | 0.841 | 5.65
6 | SK-LU-1 (lung adenocarcinoma, adherent) | 0.963 | > 1.02 | 0.677 | 3.6 | 0.92 | > 10 | 0.897 | > 10.2
7 | NCI-H522 (lung adenocarcinoma, adherent) | 0.959 | > 1.02 | 0.585 | 1.78 | 0.831 | 8.04 | 0.853 | > 10.2
8 | HT-1080 (fibrosarcoma, adherent) | 0.982 | > 1.02 | 0.737 | 4.36 | 0.956 | > 10 | 0.886 | 9.27
9 | NCI-H2009 (lung adenocarcinoma, adherent) | 0.936 | > 1.02 | 0.35 | 0.374 | 0.925 | > 10 | 0.968 | > 10.2
10 | COLO-783 (melanoma, adherent) | 0.991 | > 1.02 | 0.987 | > 16 | 0.956 | > 10 | 0.979 | > 10.2
11 | M059J (glioma, adherent) | 0.981 | > 1.02 | 0.897 | > 16 | 0.837 | 7.54 | 0.779 | 4.55
12 | G-361 (melanoma, adherent) | 0.986 | > 1.02 | 0.541 | 1.29 | 0.792 | 4.31 | 0.808 | 5.01
13 | 639-V (bladder, adherent) | 0.98 | > 1.02 | 0.493 | 0.958 | 0.906 | > 10 | 0.97 | > 10.2
14 | SK-N-SH (neuroblastoma, adherent) | 0.983 | > 1.02 | 0.268 | 0.22 | 0.902 | > 10 | 0.895 | > 10.2
15 | PANC-08-13 (pancreas, adherent) | 0.97 | > 1.02 | 0.922 | > 16 | 0.884 | > 10 | 0.849 | > 10.2
16 | NCI-H841 (small cell lung carcinoma, adherent) | 0.973 | > 1.02 | 0.876 | 16 | 0.955 | > 10 | 0.942 | > 10.2
17 | H3118 (head and neck, adherent) | 0.969 | > 1.02 | 0.528 | 1.2 | 0.794 | 5.07 | 0.88 | > 10.2
18 | IGR-37 (melanoma, adherent) | 0.975 | > 1.02 | 0.653 | 2.54 | 0.827 | 5.39 | 0.822 | 5.3
19 | HCC1428 (breast, adherent) | 0.963 | > 1.02 | 0.865 | > 16 | 0.865 | > 10 | 0.985 | > 10.2
20 | TCCSUP (bladder, adherent) | 0.984 | > 1.02 | 0.691 | 3.73 | 0.903 | > 10 | 0.881 | > 10.2
21 | PANC-10-05 (pancreas, adherent) | 0.947 | > 1.02 | 0.663 | 3.25 | 0.875 | > 10 | 0.958 | > 10.2
22 | HCC-78 (lung adenocarcinoma, adherent) | 0.983 | > 1.02 | 0.956 | > 16 | 0.816 | 6.77 | 0.875 | > 10.2
23 | FTC-133 (thyroid, adherent) | 0.965 | > 1.02 | 0.832 | 11.7 | 0.919 | > 10 | 0.971 | > 10.2
24 | EW-7 (Ewing sarcoma, semi-adherent) | 0.986 | > 1.02 | 0.859 | 10.8 | 0.981 | > 10 | 0.68 | 1.89

Row | Cell Line | AUC [1] | IC50 [1] [µM] | AUC [2] | IC50 [2] [µM] | AUC [3] | IC50 [3] [µM] | AUC [4] | IC50 [4] [µM]
25 | KP-3 (pancreas, adherent) | 0.982 | > 1.02 | 0.79 | 8.66 | 0.867 | > 10 | 0.913 | > 10.2
26 | SNG-M (endometrium, adherent) | 0.959 | > 1.02 | 0.286 | 0.253 | 0.719 | 2.57 | 0.767 | 3.73
27 | HSC-2 (head and neck, adherent) | 0.988 | > 1.02 | 0.75 | 4.88 | 0.826 | 5.45 | 0.945 | > 10.2
28 | SISO (cervix, adherent) | 0.984 | > 1.02 | 0.541 | 1.29 | 0.851 | 7.18 | 0.973 | > 10.2
29 | MES-SA (uterus, adherent) | 0.984 | > 1.02 | 0.693 | 3.15 | 0.856 | 6.22 | 0.992 | > 10.2
30 | Calu-3 (lung adenocarcinoma, adherent) | 0.979 | > 1.02 | 0.642 | 2.74 | 0.772 | 4.89 | 0.983 | > 10.2
31 | HuO9 (osteosarcoma, adherent) | 0.981 | > 1.02 | 0.935 | > 16 | 0.828 | 7.09 | 0.958 | > 10.2
32 | JHU-011 (head and neck, adherent) | 0.983 | > 1.02 | 0.478 | 0.873 | 0.893 | > 10 | 0.899 | > 10.2
33 | CaR-1 (large intestine, adherent) | 0.945 | > 1.02 | 0.734 | 6.65 | 0.959 | > 10 | 0.965 | > 10.2
34 | MDA-MB-468 (breast, adherent) | 0.943 | > 1.02 | 0.804 | 7.65 | 0.927 | > 10 | 0.944 | > 10.2
35 | KU-19-19 (bladder, adherent) | 0.984 | > 1.02 | 0.874 | 15.6 | 0.71 | 2.45 | 0.987 | > 10.2
36 | WM1552C (melanoma, adherent) | 0.983 | > 1.02 | 0.591 | 1.78 | 0.881 | > 10 | 0.988 | > 10.2
37 | MFE-319 (endometrium, adherent) | 0.978 | > 1.02 | 0.577 | 1.62 | 0.886 | > 10 | 0.906 | > 10.2
38 | HCC1395 (breast, adherent) | 0.931 | > 1.02 | 0.774 | 7.57 | 0.937 | > 10 | 0.83 | 8.26
39 | BICR78 (head and neck, adherent) | 0.754 | 0.395 | 0.763 | 6.63 | 0.727 | 3.1 | 0.964 | > 10.2
40 | EPLC-272H (lung squamous cell carcinoma, adherent) | 0.976 | > 1.02 | 0.799 | 8.82 | 0.792 | 5.18 | 0.788 | 5.13
41 | M14 (melanoma, adherent) | 0.814 | 0.597 | 0.837 | 11.5 | 0.876 | > 10 | 0.75 | 3.5
42 | IGR-1 (melanoma, adherent) | 0.982 | > 1.02 | 0.567 | 1.49 | 0.828 | 5.17 | 0.738 | 2.75
43 | BICR10 (head and neck, adherent) | 0.969 | > 1.02 | 0.705 | 4.18 | 0.877 | > 10 | 0.981 | > 10.2
44 | COLO-205 (large intestine, suspension) | 0.984 | > 1.02 | 0.702 | 3.67 | 0.886 | > 10 | 0.891 | > 10.2
45 | G-401 (kidney, adherent) | 0.853 | 0.926 | 0.406 | 0.539 | 0.878 | > 10 | 0.672 | 2.04
46 | NCI-H1573 (lung adenocarcinoma, adherent) | 0.991 | > 1.02 | 0.984 | > 16 | 0.923 | > 10 | 0.985 | > 10.2
47 | RERF-GC-1B (stomach, adherent) | 0.985 | > 1.02 | 0.887 | > 16 | 0.911 | > 10 | 0.669 | 2.01
48 | OVISE (ovary, adherent) | 0.974 | > 1.02 | 0.767 | 7.89 | 0.902 | > 10 | 0.903 | > 10.2

The IC50 comes from the fitted curve, where viability falls to half of the control; a fit beyond the top or the lowest dose is shown as a bound at that dose. For AUC the same curve is integrated over the 256-fold range of doses and scaled to a fraction; it is 1 without any effect and falls as sensitivity rises. Where the top dose is marked as inferred, it is not printed in the source and was worked back from the curve model.
